Results are given in words; binding and its absence hold for the method and conditions named. Binding seen in cells or lysates may run through a third protein. Some results given as binding are weak or reduced against the parent protein; the word gives no strength. For part of these data: Sequences can lack the tags named with a protein. Values belong to the molecule of their own block, whether it stands above or below them.
Experiments:
Assay in all cases: co-IP; C3H10T1/2 cells infected with retrovirus expressing FLAG-tagged protein; whole cell extracts in RIPA buffer, FLAG-M2 agarose 16 h at 4 °C, four washes with RIPA, immunoblot of endogenous partners; also control and shKDM4D cells at day 5 after induction of differentiation
FLAG-NFIB (mouse) = FLAG-NFIB (mouse) (UniProt P97863)
FLAG-KDM4C = target: T1, FLAG-KDM4C (UniProt Q8VCD7)
T1 sequence: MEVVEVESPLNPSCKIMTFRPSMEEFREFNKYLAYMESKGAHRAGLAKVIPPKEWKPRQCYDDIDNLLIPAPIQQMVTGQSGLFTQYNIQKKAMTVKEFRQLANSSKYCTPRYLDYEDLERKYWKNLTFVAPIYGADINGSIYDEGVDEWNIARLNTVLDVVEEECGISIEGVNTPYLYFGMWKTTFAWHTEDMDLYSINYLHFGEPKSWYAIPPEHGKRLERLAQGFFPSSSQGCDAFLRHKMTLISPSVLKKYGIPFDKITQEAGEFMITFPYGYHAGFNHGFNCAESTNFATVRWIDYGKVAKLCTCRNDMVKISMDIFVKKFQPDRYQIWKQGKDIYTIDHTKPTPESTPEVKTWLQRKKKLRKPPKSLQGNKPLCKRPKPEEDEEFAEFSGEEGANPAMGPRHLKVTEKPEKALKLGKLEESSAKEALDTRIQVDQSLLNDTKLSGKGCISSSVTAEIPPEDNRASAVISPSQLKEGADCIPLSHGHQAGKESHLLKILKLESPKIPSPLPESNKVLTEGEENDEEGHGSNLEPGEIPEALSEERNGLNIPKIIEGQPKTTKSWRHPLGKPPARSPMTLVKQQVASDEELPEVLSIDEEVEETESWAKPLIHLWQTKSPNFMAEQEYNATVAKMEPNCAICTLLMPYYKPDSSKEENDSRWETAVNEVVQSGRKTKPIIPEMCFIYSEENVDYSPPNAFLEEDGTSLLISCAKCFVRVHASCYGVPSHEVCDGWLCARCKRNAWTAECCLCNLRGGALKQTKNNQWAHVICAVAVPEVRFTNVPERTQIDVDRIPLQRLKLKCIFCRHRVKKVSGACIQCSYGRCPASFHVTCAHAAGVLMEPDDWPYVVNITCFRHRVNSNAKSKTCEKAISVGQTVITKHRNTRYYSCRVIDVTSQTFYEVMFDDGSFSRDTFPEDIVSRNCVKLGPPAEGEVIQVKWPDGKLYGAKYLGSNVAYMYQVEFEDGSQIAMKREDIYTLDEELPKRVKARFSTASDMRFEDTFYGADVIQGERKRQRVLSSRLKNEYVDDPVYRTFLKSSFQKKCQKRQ

By UniProt entry, the sequences of proteins in these tests, tags left out.
UniProt Q6NZQ4: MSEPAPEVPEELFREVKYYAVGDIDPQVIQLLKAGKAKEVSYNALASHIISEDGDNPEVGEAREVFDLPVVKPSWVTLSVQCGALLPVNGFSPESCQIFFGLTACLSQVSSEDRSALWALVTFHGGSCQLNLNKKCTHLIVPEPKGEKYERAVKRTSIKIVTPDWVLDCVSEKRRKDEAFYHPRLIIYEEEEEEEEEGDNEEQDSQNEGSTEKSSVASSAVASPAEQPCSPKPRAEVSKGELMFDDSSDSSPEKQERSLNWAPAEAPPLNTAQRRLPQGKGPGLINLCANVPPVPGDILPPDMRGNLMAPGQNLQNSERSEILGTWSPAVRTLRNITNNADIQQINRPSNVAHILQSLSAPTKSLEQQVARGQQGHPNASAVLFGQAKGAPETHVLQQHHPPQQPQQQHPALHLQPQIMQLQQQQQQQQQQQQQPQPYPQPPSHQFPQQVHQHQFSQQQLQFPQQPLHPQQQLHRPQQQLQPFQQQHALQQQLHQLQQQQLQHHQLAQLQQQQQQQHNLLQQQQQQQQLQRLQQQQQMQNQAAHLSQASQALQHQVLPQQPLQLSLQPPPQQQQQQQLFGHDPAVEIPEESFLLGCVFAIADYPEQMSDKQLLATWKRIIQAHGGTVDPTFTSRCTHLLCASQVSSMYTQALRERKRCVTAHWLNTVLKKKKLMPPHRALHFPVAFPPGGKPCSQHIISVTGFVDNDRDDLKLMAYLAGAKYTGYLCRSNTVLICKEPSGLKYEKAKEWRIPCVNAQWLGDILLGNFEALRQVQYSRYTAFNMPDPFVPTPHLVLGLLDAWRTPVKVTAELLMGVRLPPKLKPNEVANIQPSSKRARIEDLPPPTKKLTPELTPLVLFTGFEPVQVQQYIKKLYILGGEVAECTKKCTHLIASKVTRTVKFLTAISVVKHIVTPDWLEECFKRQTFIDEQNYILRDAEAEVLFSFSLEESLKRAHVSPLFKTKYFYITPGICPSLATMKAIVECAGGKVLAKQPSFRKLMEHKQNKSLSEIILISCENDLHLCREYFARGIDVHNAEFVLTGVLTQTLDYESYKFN

FLAG-KDM4A = target: T2, FLAG-KDM4A (UniProt Q8BW72)
T2 sequence: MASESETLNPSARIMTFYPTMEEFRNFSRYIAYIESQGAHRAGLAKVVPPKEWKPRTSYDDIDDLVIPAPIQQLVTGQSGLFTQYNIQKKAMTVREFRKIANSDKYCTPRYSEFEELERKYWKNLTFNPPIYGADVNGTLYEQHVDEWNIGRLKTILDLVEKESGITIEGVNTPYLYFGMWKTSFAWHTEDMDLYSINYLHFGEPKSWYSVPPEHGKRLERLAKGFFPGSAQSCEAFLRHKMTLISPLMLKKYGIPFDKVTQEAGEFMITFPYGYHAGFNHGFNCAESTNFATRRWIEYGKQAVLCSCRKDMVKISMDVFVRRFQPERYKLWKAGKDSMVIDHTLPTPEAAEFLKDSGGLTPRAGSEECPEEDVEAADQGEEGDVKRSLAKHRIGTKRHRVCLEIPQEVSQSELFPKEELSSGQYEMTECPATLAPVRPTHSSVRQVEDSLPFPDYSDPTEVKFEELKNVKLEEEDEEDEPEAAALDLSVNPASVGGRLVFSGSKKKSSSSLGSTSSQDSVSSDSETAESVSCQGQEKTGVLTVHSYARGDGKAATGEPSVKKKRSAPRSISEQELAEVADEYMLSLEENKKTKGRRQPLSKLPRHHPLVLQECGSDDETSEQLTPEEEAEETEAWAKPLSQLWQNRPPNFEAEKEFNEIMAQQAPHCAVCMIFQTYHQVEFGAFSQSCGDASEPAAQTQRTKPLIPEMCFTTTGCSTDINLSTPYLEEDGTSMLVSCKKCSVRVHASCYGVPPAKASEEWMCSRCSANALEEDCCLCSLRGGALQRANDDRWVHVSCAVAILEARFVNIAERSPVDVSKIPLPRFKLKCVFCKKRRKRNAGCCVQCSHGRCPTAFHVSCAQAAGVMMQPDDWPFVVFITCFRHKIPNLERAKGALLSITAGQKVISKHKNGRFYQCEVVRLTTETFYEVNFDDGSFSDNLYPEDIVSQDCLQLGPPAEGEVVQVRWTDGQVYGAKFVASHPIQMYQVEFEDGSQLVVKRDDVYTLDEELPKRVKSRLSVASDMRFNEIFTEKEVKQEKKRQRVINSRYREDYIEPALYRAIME

FLAG-KDM4B = target: T3, FLAG-KDM4B (UniProt Q91VY5)
T3 sequence: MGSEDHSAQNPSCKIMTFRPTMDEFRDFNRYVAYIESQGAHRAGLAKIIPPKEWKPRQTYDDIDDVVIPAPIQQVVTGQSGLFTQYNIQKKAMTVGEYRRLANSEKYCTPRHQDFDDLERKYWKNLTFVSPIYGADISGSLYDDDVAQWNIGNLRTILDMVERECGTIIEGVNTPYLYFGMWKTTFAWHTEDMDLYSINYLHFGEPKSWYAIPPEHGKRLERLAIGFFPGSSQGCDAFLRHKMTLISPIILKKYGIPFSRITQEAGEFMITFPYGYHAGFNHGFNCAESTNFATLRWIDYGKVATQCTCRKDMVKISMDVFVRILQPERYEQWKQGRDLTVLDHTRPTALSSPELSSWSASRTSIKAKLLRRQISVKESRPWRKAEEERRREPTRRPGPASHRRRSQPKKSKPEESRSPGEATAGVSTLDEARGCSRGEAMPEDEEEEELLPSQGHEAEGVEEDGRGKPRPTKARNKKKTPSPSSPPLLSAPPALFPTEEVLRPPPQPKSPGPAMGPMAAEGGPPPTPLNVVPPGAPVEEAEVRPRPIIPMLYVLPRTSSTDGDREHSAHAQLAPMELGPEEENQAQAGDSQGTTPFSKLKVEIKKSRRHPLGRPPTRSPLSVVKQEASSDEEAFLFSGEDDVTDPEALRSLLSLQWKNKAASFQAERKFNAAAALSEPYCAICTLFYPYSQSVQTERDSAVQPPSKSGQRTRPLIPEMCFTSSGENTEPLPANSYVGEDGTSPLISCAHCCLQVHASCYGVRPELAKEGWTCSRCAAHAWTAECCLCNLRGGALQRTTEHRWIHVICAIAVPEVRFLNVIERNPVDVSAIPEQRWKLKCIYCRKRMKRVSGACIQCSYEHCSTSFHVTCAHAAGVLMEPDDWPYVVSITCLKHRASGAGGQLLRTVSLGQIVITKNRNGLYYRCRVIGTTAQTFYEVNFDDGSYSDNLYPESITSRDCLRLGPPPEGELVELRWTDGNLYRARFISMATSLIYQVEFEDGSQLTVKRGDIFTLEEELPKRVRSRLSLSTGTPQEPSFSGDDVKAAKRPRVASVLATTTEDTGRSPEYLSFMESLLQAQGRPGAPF

FLAG-KDM4D (mouse) = target: T4, FLAG-KDM4D (mouse) (UniProt Q3U2K5)
T4 sequence: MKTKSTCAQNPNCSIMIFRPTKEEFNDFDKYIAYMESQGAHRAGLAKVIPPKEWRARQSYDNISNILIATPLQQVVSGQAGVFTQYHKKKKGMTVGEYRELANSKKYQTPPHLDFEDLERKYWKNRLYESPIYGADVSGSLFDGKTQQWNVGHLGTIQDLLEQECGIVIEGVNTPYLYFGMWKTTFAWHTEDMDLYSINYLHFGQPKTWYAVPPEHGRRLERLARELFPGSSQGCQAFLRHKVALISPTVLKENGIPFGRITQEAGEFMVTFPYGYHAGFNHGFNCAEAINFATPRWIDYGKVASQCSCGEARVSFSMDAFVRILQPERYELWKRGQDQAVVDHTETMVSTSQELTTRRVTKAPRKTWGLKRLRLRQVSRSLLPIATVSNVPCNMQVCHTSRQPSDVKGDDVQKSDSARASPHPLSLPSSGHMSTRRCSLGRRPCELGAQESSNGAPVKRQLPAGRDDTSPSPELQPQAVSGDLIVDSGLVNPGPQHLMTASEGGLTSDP

binding (FLAG-KDM4C): no binding | binding (FLAG-KDM4A): no binding | binding (FLAG-KDM4B): no binding | binding (FLAG-NFIB (mouse)): binds
Molecule: MLL1 (from UniProt P55200 1-3966) (enzyme)

binding (FLAG-NFIB (mouse)): binds
Molecule: Rbbp5 (from UniProt Q8BX09 1-538)

binding (FLAG-NFIB (mouse)): binds
B1: Menin (protein, UniProt O88559 1-611)
chain: MGLKAAQKTLFPLRSIDDVVRLFAAELGREEPDLVLLSLVLGFVEHFLAVNRVIPTNVPELTFQPSPAPDPPGGLTYFPVADLSIIAALYARFTAQIRGAVDLSLYPREGGVSSRELVKKVSDVIWNSLSRSYFKDRAHIQSLFSFITGTKLDSSGVAFAVVGACQALGLRDVHLALSEDHAWVVFGPNGEQTAEVTWHGKGNEDRRGQTVNAGVAERSWLYLKGSYMRCDRKMEVAFMVCAINPSIDLHTDSLELLQLQQKLLWLLYDLGHLERYPMALGNLADLEELEPTPGRPDPLTLYHKGIASAKTYYQDEHIYPYMYLAGYHCRNRNVREALQAWADTATVIQDYNYCREDEEIYKEFFEVANDVIPNLLKEAASLLETGEERTGEQAQGTQGQGSALQDPECFAHLLRFYDGICKWEEGSPTPVLHVGWATFLVQSLGRFEGQVRQKVHIVSREAEAAEAEEPWGDEAREGRRRGPRRESKPEEPPPPKKPALDKGPGSGQSAGSGPPRKTSGTVPGTTRGGQEVGNAAQAPAPAASPPPEGPVLTFQSEKMKGMKELLVATKINSSAIKLQLTAQSQVQMKKQKVSTPSDYTLSFLKRQRKGL

More lines, now with the values behind:

Molecule: Ash2l (from UniProt Q91X20 1-623)
binding (FLAG-NFIB (mouse)): binds

Molecule: NFIB (from UniProt P97863 1-570)
binding (FLAG-KDM4C): no binding | binding (FLAG-KDM4A): no binding | binding (FLAG-KDM4B): no binding

Molecule: PTIP (from UniProt Q6NZQ4 1-1056)
binding (FLAG-KDM4D (mouse)): no binding | binding (FLAG-NFIB (mouse)): no binding
